These results are taken from PMC11549370, “Two distinct regulatory pathways govern Cct2-Atg8 binding in the process of solid aggrephagy” (EMBO Reports, 2024).

Chains of the proteins cited; added tags and fusions are not shown.
UniProt P12612: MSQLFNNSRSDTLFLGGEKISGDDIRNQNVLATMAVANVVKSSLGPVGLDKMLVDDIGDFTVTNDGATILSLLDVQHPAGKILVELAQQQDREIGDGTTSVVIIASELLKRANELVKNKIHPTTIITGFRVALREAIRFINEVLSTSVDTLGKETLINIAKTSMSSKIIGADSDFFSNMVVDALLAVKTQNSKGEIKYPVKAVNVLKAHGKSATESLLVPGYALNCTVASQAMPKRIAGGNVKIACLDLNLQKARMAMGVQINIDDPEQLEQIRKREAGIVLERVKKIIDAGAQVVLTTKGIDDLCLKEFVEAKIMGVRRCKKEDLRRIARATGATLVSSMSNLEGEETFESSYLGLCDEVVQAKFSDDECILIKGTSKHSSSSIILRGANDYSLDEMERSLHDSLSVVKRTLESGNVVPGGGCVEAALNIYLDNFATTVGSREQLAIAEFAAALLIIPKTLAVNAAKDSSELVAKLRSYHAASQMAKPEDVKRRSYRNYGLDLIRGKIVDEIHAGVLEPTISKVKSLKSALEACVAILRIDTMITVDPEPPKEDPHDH
UniProt P39078: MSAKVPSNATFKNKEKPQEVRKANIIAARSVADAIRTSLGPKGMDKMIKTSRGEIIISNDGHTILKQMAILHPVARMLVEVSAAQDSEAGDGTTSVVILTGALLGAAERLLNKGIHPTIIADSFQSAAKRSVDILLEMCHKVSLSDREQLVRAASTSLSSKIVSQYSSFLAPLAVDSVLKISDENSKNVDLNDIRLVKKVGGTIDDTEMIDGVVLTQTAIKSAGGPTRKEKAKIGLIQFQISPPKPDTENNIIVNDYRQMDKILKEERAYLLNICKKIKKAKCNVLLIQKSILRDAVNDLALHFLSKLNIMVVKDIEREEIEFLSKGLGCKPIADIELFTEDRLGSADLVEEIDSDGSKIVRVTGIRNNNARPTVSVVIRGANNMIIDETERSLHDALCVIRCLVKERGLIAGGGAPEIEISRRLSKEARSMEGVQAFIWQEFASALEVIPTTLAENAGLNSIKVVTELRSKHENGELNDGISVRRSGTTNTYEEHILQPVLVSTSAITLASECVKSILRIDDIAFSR
UniProt P39076: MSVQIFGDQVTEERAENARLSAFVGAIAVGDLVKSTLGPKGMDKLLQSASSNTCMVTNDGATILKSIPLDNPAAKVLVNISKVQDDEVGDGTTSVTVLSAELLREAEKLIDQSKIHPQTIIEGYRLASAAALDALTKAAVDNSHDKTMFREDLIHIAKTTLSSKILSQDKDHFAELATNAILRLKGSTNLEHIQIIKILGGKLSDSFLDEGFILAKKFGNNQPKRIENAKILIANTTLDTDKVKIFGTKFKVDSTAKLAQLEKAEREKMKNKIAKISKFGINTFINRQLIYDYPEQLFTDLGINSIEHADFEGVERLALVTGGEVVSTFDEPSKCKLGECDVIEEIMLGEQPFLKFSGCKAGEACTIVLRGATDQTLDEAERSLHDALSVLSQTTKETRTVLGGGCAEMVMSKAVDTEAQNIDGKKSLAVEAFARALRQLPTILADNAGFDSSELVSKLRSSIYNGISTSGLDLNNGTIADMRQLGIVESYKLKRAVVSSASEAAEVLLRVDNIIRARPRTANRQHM

The target in one assay is GST-Cct1 (S. cerevisiae) (UniProt P12612). As to the kind of experiment: pull-down; in vitro GST pulldown: GST-tagged protein on GST beads, prey added in binding buffer B (1 mM EDTA, 1 mM EGTA, 150 mM NaCl, 1% Triton X-100 in 1×PBS), 3 h, 4 °C; SDS-PAGE, Coomassie staining; both purified.
A further assay concerns the target GST-Cct4 (S. cerevisiae) (UniProt P39078). The assay is described as above.
The target of assay [1] is 3×FLAG-Cct2 (S. cerevisiae) (UniProt P39076). Kind of assay: co-IP; lysates of yeast co-expressing the tagged proteins, nutrient-rich conditions, with or without Ape1 P22L; anti-FLAG or anti-HA agarose beads, western blot; also done in atg1∆, atg2∆, atg14∆ and atg8∆ strains. A general note: In western blotting, separated proteins are transferred to a membrane and probed.

No constants are given. Whether binding was seen depends on the method and setting. For part of these data: Binding seen in cells or lysates may run through a third protein. Some results given as binding are weak or reduced against the parent protein; the word gives no strength. Where a sequence is shown, tags or fusion partners need not be part of it.

B1: His-Atg8 (natural protein, S. cerevisiae, UniProt P38182 1-117, looked up)
chain: MKSTFKSEYPFEKRKAESERIADRFKNRIPVICEKAEKSDIPEIDKRKYLVPADLTVGQFVYVIRKRIMLPPEKAIFIFVNDTLPPTAALMSAIYQEHKDKDGFLYVTYSGENTFGR
notes: Atg8, S. cerevisiae; source: E. coli, purified; not shown: His, N-terminal, kept
As to B1, the binding entry with GST-Cct1 (S. cerevisiae) and in the assay with GST-Cct4 (S. cerevisiae) was “no binding” each time.

B2: WT HA-Atg11 (protein, UniProt Q12527 1-1178)
chain: MADADEYSTAPTQQEITPLQTTATIINAISGECITTNVDFFVSLDKFKQFIARKWKIPPDQLLILLPYGNKLKPSMFKELLINRSFTLNDFYVYDRRLFSLVSKPTPTNLLTSKDSNPMNSPNSNDLTETLEYLIKNSHISQYQGSDTIMIKPMPSPLEDADVDLSRLNYHSVTSLLTTNLGWLSALEIDVHYFKSLIPDIIAHIKRIFDGLTVCSQYLKLYCFDVESLYNSNVQFLNQLVDNGMTSKWEKCFNDTLSKLTALEGDSLQKFINIESLLENEKSVKILNHSINGKLNKIKREIDENASFRDIITVNIDRLRQMFTPNESKFELEDQMAESFEVLVSEMRTRSRNVLDKEEEEFNSQEFLKSMNVMLEKDKKESVKTLFTISQALYSQIGELIDLKKSLQKHAVAILGNIAFTQMEILGIKRLLLNECNKDLELYKKYEVEFAQVEDLPLIYGLYLIEKYRRLSWFQQILSFISNFNQDLELFKQNELRTRNKWVKNFGSIATVFCEDLLSSSDFKRLNEYHSHTSPPNEDEEDENENSIANYRQDLVKVSQAIDNYMTQIKETDVSEPIIDLLSKTLFETKRFHIIYSNFKNNNNNSSNGNSISPEGSIALKSDDVVKGYKTRIKKLESLLHEFQYSDIGHWPQGVLNTHLKPFRGSATSINKKKFLGASVLLEPANISEVNIDSVSQANNHQIQELESNVDDLLHQLQLLKEENNRKSMQISEMGKKISDLEVEKTAYRETLTNLNQELARLTNEEQSHRTEIFTLNASFKKQLNDIISQDNEKIEKLTGDYDDVSKSRERLQMDLDESNKKHEQEVNLLKADIERLGKQIVTSEKSYAETNSSSMEKGEKFETIPLAEDPGRENQISAYTQTLQDRIFDIISTNIFILENIGLLLTFDNNNNIQIRRVKGLKKGTAQSNILDESTQMLDAHDNSLIKSPVFQKLKDEYELIKSVANGSEKDTQQSIFLGNITQLYDNKLYEVAVIRRFKDIETLAKKLTKENKIKRTLLERFQREKVTLRNFQIGDLALFLPTRENVNSVGSMSSSTSSLSSSFSSVDLSTPPPLDAMSIQSSPSVIHSNVINQASISGRDKNKLMRPWAAFTAFEESTRYFLKDEKGLTKGKEWFVGRIVTLEHFVADSPSNNPFRLPKGSVWFQVTAVVVSYQGV
In the case of B2, the binding entry in assay [1] is recorded as “binds”.
